# The campaign covered roughly 330,000 compounds. About 560 (0.17%) were called active. The shares of active, inactive and inconclusive entries below differ from those in the screen. Calls come from the whole dose curve; as a rule, active = well fitted inhibition curve with a large enough effect; inconclusive = small, poorly fitted or top-dose-only effect, or effect the other way; inactive = flat fitted curve, though single readings scatter. Potencies of inconclusive entries are left out as doubtful fits.
# Biological target: ATP-dependent 6-phosphofructokinase (Trypanosoma brucei brucei) (UniProt O15648)
# Sequence of UniProt O15648 (O15648 whole entry, looked up): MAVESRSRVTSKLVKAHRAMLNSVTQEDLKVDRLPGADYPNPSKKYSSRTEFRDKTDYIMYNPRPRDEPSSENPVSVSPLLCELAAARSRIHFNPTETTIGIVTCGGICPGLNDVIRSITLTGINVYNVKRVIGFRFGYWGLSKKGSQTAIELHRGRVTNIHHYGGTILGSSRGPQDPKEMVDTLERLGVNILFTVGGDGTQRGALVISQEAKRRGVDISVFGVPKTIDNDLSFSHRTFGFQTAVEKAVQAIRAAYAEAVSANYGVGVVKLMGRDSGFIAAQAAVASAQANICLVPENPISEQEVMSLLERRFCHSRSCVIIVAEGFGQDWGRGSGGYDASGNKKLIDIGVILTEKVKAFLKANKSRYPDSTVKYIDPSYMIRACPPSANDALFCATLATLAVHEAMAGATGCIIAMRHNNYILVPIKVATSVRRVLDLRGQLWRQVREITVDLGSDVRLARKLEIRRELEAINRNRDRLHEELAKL
# Assay: qHTS Assay to Find Inhibitors of T. brucei phosphofructokinase; note: nearly all actives have a fitted effect of over 60% in size;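 for activity, negative = inhibition: 0% = uninhibited 1x PFK enzyme wells and -100% = no-enzyme wells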
# Conditions: T. brucei PFK, ADP-Glo luminescence; activity, negative = inhibition: at 57.5 µM (top of the series)
# In short: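 Luminescent ADP detection (ADP-Glo, two-step: ATP depletion then ADP-to-ATP conversion for luciferase) reported PFK activity after 45 min room-temperature reaction of 1.25 nM enzyme with 0.5 mM F6P and 0.1 mM ATP at pH 8.0.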
# Potency is the fitted concentration of half-maximal effect; tags give direction and shape of the fitted curve.
SMILES,Potency,"activity, negative = inhibition"
Cc1cc(O)c(C=O)c2c1C(=O)Oc1c(CO)c(O)c3c(c1O2)C(O)OC3=O (centres undefined),active: 23.9 µM,–
CCN1CCN(Cc2nc3c(c(=O)n(C)c(=O)n3C)n2CCc2ccccc2)CC1,"inconclusive [falling, single point]",–
Cc1nnc2sc(SCc3ccccc3)nn2c1=O,inactive,–
Cc1ccc(/C=N/NC(=O)Cc2ccc(Cl)cc2)s1,"inconclusive [falling, partial curve, poor fit]",–
N#CCSc1nnc(CNc2cccc(Cl)c2)o1,active: 23.9 µM,–
Cn1c(=O)c2c(ncn2CC(=O)N2CCN(c3cccc(Cl)c3)CC2)n(C)c1=O,"inconclusive [falling, single point]",–
Cc1ccccc1N1CCN(S(=O)(=O)Cc2ccccc2)CC1,"inconclusive [falling, single point]",–
CCN(C(=O)COC(=O)c1cc(-c2ccc(C)o2)nc2ccccc12)C1CCS(=O)(=O)C1 (centres undefined),"inconclusive [falling, single point]",–
COc1ccc(CCC(=O)Nc2ccc(Cl)c(S(=O)(=O)N3CCCC3)c2)cc1,inactive,–
CC(C)c1ccc(/C=c2\sc3nc(-c4ccncc4)nn3c2=O)cc1,–,inactive: -5.64% [at 0.46 µM]
COc1ccc2c(c1)CCc1c(C(=O)N3CCCc4ccccc43)noc1-2,inactive,–
CN(CCO)c1cc(Sc2nc3ccccc3s2)c2nonc2c1[N+](=O)[O-],"inconclusive [falling, partial curve]",–
O=C(CN1CCOCC1)NNC(=O)c1ccc(Cl)cc1,inactive,–
CC1CCc2nc(N)c(C#N)c(-c3cccnc3)c2C1 (centres undefined),inactive,–
O=C(COC(=O)CCC(=O)c1cccs1)NCc1ccco1,active: 6.75 µM,–
CS(=O)(=O)c1ccc(C(=O)Nc2nc(-c3ccco3)c(-c3ccco3)s2)cc1,"inconclusive [falling, partial curve]",–
CC(C)c1ccc(-n2c(-c3ccccc3)c[n+]3c2CCc2ccccc2-3)cc1,inactive,–
O=C(COC(=O)c1ccccc1Nc1cccc(C(F)(F)F)c1)NCc1ccco1,"inconclusive [falling, single point]",–
O=C(CSc1nc2ccccc2s1)Nc1ccc(Cl)c(C(=O)O)c1,"inconclusive [activator, partial curve]",–
Cn1cccc1C(=O)Nc1nc(-c2ccccn2)cs1,inactive,–
COc1ccc(CNC(=O)C(OC(=O)c2cccs2)C(C)C)cc1 (centres undefined),inactive,–
O=c1c(O[C@@H]2O[C@H](CO)[C@H](O)[C@H](O)[C@H]2O)c(-c2ccc(O)c(O)c2)oc2cc(O)cc(O)c12,active: 6.75 µM,–
Cc1ccc2c(c1)cc(CN(Cc1ccco1)C(=O)N1CCOCC1)c1nnnn12,inactive,–
N/C(=N\c1nc2c(c(=O)[nH]1)CCC2)Nc1cccc2ccccc12,inactive,–
COc1ccccc1NC(=O)c1ccc2c(c1)nnn2C,"inconclusive [falling, single point]",–

SMILES,Potency,"activity, negative = inhibition"
C=C(C)C(=O)Nc1cccc(C2=NOC3(C2)C[C@@H](C(N)=O)N(C(=O)c2cc([N+](=O)[O-])cc([N+](=O)[O-])c2C)C3)c1 (some centres undefined),"inconclusive [falling, single point]",–
Cc1cccc(NC(=O)Cn2nc([N+](=O)[O-])c(Br)c2C)n1,active: 16.9 µM,–
COc1ccc(OC)c(S(=O)(=O)N2CCCCCC2)c1,inactive,–
COc1ccc(C(=O)Nc2nnc(CC(=O)N/N=C/c3ccc(O)cc3O)s2)cc1,"inconclusive [activator, partial curve]",–
O=C1OCC2OC(O)C(O)C(O)C2OC(=O)c2cc(O)c(O)c(O)c2-c2c(O)c(O)c3oc(=O)c4c(c(O)c(O)c5oc(=O)c2c3c54)-c2c1cc(O)c(O)c2O (centres undefined),active: 0.953 µM,–
CC(C)Cn1c(-c2ccco2)csc1=Nc1cccnc1,inactive,–
CCC1(c2ccc(F)cc2)NC(=O)N(CC(=O)c2ccc[nH]2)C1=O (centres undefined),"inconclusive [activator, full curve]",–
CN(C)c1ccc(C(CC(=O)O)C(=O)O)cc1 (centres undefined),"inconclusive [falling, single point]",–
Cc1cc(C)nc(N2N=C(C(C)(C)C)CC2=O)n1,"inconclusive [activator, partial curve]",–
O=C(Nc1ccsc1C(=O)O)c1cccc(Oc2ccccc2)c1,inactive,–
Cc1nc(-c2cccc(C(F)(F)F)c2)sc1C(=O)O,inactive,–
Cc1ccc(O)c(C(CC(=O)NC(C)C)c2ccccc2)c1 (centres undefined),"inconclusive [falling, single point]",–
C=CCNc1oc(-c2cccc(Cl)c2)nc1C#N,active: 26.9 µM,–
COc1ccc(S(=O)(=O)N2Cc3ccccc3CC2C(=O)O)cc1 (centres undefined),"inconclusive [falling, single point]",–
Cc1ccc2c(c1)N(CC(=O)N1CCCCCC1)C(=O)C(C)O2 (centres undefined),inactive,–
O=[N+]([O-])c1ccc(Sc2cccc[n+]2[O-])c2nonc12,active: 10.7 µM,–
O=C(N/N=C/c1ccoc1)c1cc(O)cc(O)c1,"inconclusive [falling, single point]",–
CC1=NOC(=O)/C1=C\c1ccc(-c2cccc(Cl)c2)o1,active: 21.3 µM,–
Cc1nc(N2CCCCC2)c2c(C)c(C(=O)Nc3ccc4c(c3)OCCO4)sc2n1,inactive,–
N=C(N)SCc1ccc(Cl)cc1Cl,"inconclusive [falling, single point]",–
CCOC(=O)c1nc(NCc2ccccc2)sc1C,"inconclusive [falling, single point]",–
CC(=O)Nc1cccc(C(=O)N/N=C/c2cccc(C)n2)c1,"inconclusive [activator, full curve, poor fit]",–
COc1ccccc1CNC(=O)COC(=O)Cc1c[nH]c2ccccc12,"inconclusive [activator, single point]",–
N#Cc1cn(Cc2cccc(Cl)c2)c2ccccc12,"inconclusive [falling, full curve, poor fit]",–

# Reference: PubChem BioAssay AID485367 (National Center for Advancing Translational Sciences (NCATS), 2010)
